# In the supplement of paper PMC3334620:
# Whole data set: some 33,000 sequences, median “E-score (-0.5 to 0.5)” near -0.032, cut for the highest 2% near 0.36. This is one part of the list.
# Biological target: T1, Sko1 (UniProt Q02100)
# T1 sequence: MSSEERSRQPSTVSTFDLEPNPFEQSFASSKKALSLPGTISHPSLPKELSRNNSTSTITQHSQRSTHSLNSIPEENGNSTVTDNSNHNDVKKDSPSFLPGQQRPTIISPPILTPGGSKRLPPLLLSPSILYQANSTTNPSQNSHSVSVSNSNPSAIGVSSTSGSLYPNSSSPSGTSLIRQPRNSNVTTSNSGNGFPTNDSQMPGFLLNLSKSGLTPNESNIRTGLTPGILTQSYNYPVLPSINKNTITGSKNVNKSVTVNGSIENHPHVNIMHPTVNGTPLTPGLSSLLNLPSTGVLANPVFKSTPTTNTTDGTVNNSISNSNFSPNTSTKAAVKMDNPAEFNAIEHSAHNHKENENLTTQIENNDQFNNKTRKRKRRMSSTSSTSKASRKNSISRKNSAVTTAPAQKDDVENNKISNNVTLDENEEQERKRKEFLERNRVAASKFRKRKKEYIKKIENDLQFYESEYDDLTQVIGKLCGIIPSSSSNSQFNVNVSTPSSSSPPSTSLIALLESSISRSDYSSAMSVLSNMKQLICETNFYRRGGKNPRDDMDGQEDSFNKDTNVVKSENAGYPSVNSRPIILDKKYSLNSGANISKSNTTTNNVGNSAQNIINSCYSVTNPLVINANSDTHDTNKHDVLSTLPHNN
# Experiment: PBM E-score (8-mer binding enrichment) (E-score (-0.5 to 0.5)); higher = stronger / more preferred TF binding; most listed sequences are background and not binding sites
# Details: protein concentration: 200 nM; construct: GST-full length
# How it was run: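 Universal all-10-mer Agilent arrays, fresh or stripped once, were converted to double-stranded form by primer extension. GST-tagged yeast transcription factors from PURExpress in vitro transcription/translation, full-length or DNA-binding domain only, were applied at about 100-200 nM and detected with fluorescent anti-GST. After masliner normalisation, the Universal PBM Analysis Suite scored each ungapped eight-base word together with its reverse complement by E-score.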
row,Sequence,PBM E-score
1,GTACGTAA,0.487
2,AACAGAGT,0.18
3,AATGCGAA,0.0684
4,CCCAAGAA,-0.146
5,ATAACTCG,0.0475
6,GTTATAAC,0.154
7,AATCCAAT,0.0698
8,GCCATAAA,0.0435
9,GGTAAACC,-0.194
10,GTCACGCA,0.25
11,ACCACCGG,-0.114
12,CAGCAAGC,-0.223
13,ACTCACTC,0.0504
14,CACCACTC,-0.178
15,GAGCCCCA,-0.278
16,AATTGAAC,0.0583
17,AGCGGCAA,-0.15
18,ACTATAGA,-0.0143
19,ACCCCTGG,-0.301
20,CCATACAG,-0.0745
21,AGCGCGCA,0.0269
22,AATCCCTC,0.0478
23,CGAGCTTC,0.0178
24,CCATACTC,-0.336

row,Sequence,PBM E-score
1,CATTTGCA,0.111
2,AAGTTGAA,-0.0103
3,AGAACCTA,0.0741
4,ATGTCTCG,0.0151
5,GCCTATGA,-0.0512
6,ACCATCTA,-0.134
7,AGTTCAAG,0.0773
8,CTGTGGAA,-0.164
9,CAAGATCG,0.153
10,CTGTAAGC,-0.0774
11,GGTGCATA,-0.0153
12,GCTAATCC,0.0126
13,CACTGGGC,-0.304
14,ATGTAATA,0.376
15,TTGAGAAA,0.18
16,GCGGACCA,-0.0942
17,CTTGAACA,0.0589
18,CAAGAGCC,-0.168
19,AACGTCGC,0.233
20,AAGCCGGA,-0.0802
21,AATCCGGT,0.00046
22,CGATGGCG,-0.012
23,CAGGGGAC,-0.381
24,ACCTCCCG,-0.15

row,Sequence,PBM E-score
1,TATCTGCA,0.0664
2,AAATTCTT,-0.0295
3,TACAAGGA,-0.115
4,GGCTCCTA,-0.247
5,CTTCACCC,-0.125
6,ACGTGCAA,0.35
7,GTTACGAA,0.378
8,GAAACCAC,0.0504
9,CAGCCCGC,-0.38
10,CAAACACG,0.305
11,GACTAGAC,-0.107
12,TGCGCTAA,0.0952
13,GCCGTTCC,-0.284
14,ATTGGCAG,-0.286
15,TATCTTGA,-0.00169
16,CAGCAAAG,-0.0267
17,ACGCTGCC,-0.138
18,AGTCTCTC,-0.245
19,GTCTCGAA,-0.136
20,AAACAATA,0.311
21,CCTAAGCC,-0.224
22,CAAACCAG,-0.071
23,CCCGAACC,-0.263
24,GGTAACAC,0.0477

row,Sequence,PBM E-score
1,CCGGTGCG,-0.0349
2,CAGTGGTC,-0.178
3,GGTCCTGA,-0.102
4,CCTTATAC,0.00093
5,CAGTCACG,0.105
6,CCTGGTAG,-0.288
7,CACACGCA,0.22
8,CACACCGG,-0.268
9,CTGCTGGC,-0.365
10,AAATATTT,0.257
11,ACCGTCCG,-0.304
12,CCACTCTA,-0.0553
13,AATTTTCA,0.0476
14,GACACTCA,-0.0269
15,ACAGCTTG,0.114
16,ACTCCACT,0.05
17,CTGCCAGA,-0.254
18,CTTTCACC,0.109
19,TAATGCGA,0.131
20,ATATACCG,0.0491
21,CGCAGCTA,0.0509
22,AGTACACC,-0.0855
